# Source: the supplement of paper PMC8728848
# The list shows a part of the results.
# B1: ECL (Erythrina cristagalli), Q6YD91 (protein)
# chain: VETISFSFSEFEPGNNDLTLQGAAIITQSGVLQLTKINQNGMPAWDSTGRTLYTKPVHIWDMTTGTVASFETRFSFSIEQPYTRPLPADGLVFFMGPTKSKPAQGYGYLGVFNNSKQDNSYQTLAVEFDTFSNPWDPPQVPHIGIDVNSIRSIKTQPFQLDNGQVANVVIKYDASSKILLAVLVYPSSGAIYTIAEIVDVKQVLPEWVDVGLSGATGAQRDAAETHDVYSWSFHASLPETND
# Tests used:
# Experiment in all cases: glycan array binding signal (z-score within array); higher = stronger binding
# Settings in all cases: glycan notation: IUPAC condensed, linker removed
# [1] = target: Man(a1-2)Man(a1-3)[Man(a1-2)Man(a1-6)]Man(a1-6)[Man(a1-2)Man(a1-2)Man(a1-3)]Man
# How it was run: (§1)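 Columns mapping to the same glycan were averaged after glycan names were converted to IUPAC-condensed notation. The data come from 3228 arrays in the Consortium for Functional Glycomics database, limited to those with an available protein sequence. Binding is reported as a within-array Z-score averaged across arrays of one protein sequence and across linkers.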
# [2] = target: Man(a1-2)Man(a1-3)[Man(a1-2)Man(a1-6)]Man(a1-6)[Man(a1-2)Man(a1-2)Man(a1-3)]Man(b1-4)GlcNAc(b1-4)GlcNAc
# How it was run: as §1
# [3] = target: Man(a1-2)Man(a1-3)[Man(a1-6)]Man(a1-6)[Man(a1-2)Man(a1-3)]Man(b1-4)GlcNAc(b1-4)GlcNAc
# How it was run: as §1
# [4] = target: Man(a1-2)Man(a1-6)[Man(a1-3)]Man(a1-6)[Man(a1-2)Man(a1-2)Man(a1-3)]Man
# How it was run: as §1
# [5] = target: Man(a1-2)Man(a1-6)[Man(a1-3)]Man(a1-6)[Man(a1-2)Man(a1-2)Man(a1-3)]Man(b1-4)GlcNAc(b1-4)GlcNAc
# How it was run: as §1
# [6] = target: Man(a1-3)[Man(a1-6)]Man
# How it was run: as §1
# [7] = target: Man(a1-3)[Man(a1-6)]Man(a1-6)[Man(a1-2)Man(a1-3)]Man(b1-4)GlcNAc(b1-4)GlcNAc
# How it was run: as §1
# [8] = target: Man(a1-3)[Man(a1-6)]Man(a1-6)[Man(a1-3)]Man
# How it was run: as §1
# [9] = target: Man(a1-3)[Man(a1-6)]Man(a1-6)[Man(a1-3)]Man(b1-4)GlcNAc(b1-4)GlcNAc
# How it was run: as §1
# [10] = target: Man(a1-3)[Man(a1-6)]Man(b1-4)GlcNAc(b1-4)GlcNAc
# How it was run: as §1
# [11] = target: Man(a1-3)[Man(a1-6)]Man(b1-4)GlcNAc(b1-4)[Fuc(a1-6)]GlcNAc
# How it was run: as §1
# [12] = target: Man(a1-6)Man
# How it was run: as §1
# [13] = target: Man(b1-4)GlcNAc
# How it was run: as §1
# [14] = target: MurNAc(b1-4)GlcNAc
# How it was run: as §1
# [15] = target: Neu5Ac(a2-3)Gal
# How it was run: as §1
# [16] = target: Neu5Ac(a2-3)Gal(b1-3)GalNAc
# How it was run: as §1
# [17] = target: Neu5Ac(a2-3)Gal(b1-3)GalNAc(b1-3)Gal(a1-4)Gal(b1-4)Glc
# How it was run: as §1
# [18] = target: Neu5Ac(a2-3)Gal(b1-3)GalNAc(b1-4)[Neu5Ac(a2-3)]Gal(b1-4)Glc
# How it was run: as §1
# [19] = target: Neu5Ac(a2-3)Gal(b1-3)GalNAc(b1-4)[Neu5Ac(a2-8)Neu5Ac(a2-3)]Gal(b1-4)Glc
# How it was run: as §1
# [20] = target: Neu5Ac(a2-3)Gal(b1-3)GalNAc6S
# How it was run: as §1
# [21] = target: Neu5Ac(a2-3)Gal(b1-3)GlcNAc
# How it was run: as §1
# [22] = target: Neu5Ac(a2-3)Gal(b1-3)GlcNAc(b1-2)Man
# How it was run: as §1
# [23] = target: Neu5Ac(a2-3)Gal(b1-3)GlcNAc(b1-2)Man(a1-3)[GlcNAc(b1-4)][Neu5Ac(a2-3)Gal(b1-3)GlcNAc(b1-2)Man(a1-6)]Man(b1-4)GlcNAc(b1-4)GlcNAc
# How it was run: as §1
# [24] = target: Neu5Ac(a2-3)Gal(b1-3)GlcNAc(b1-2)Man(a1-3)[Neu5Ac(a2-3)Gal(b1-3)GlcNAc(b1-2)Man(a1-6)]Man(b1-4)GlcNAc(b1-4)GlcNAc
# How it was run: as §1
# [25] = target: Neu5Ac(a2-3)Gal(b1-3)GlcNAc(b1-3)Gal(b1-3)GlcNAc
# How it was run: as §1
# [26] = target: Neu5Ac(a2-3)Gal(b1-3)GlcNAc(b1-3)Gal(b1-4)GlcNAc
# How it was run: as §1
# [27] = target: Neu5Ac(a2-3)Gal(b1-3)GlcNAc(b1-3)GalNAc
# How it was run: as §1
# [28] = target: Neu5Ac(a2-3)Gal(b1-3)GlcNAc(b1-4)Gal(b1-4)Glc
# How it was run: as §1
# [29] = target: Neu5Ac(a2-3)Gal(b1-3)GlcNAc(b1-6)GalNAc
# How it was run: as §1
# [30] = target: Neu5Ac(a2-3)Gal(b1-3)GlcNAc6S
# How it was run: as §1
# [31] = target: Neu5Ac(a2-3)Gal(b1-3)[Fuc(a1-4)]GlcNAc
# How it was run: as §1
# [32] = target: Neu5Ac(a2-3)Gal(b1-3)[Fuc(a1-4)]GlcNAc(b1-3)Gal(b1-3)[Fuc(a1-4)]GlcNAc
# How it was run: as §1
# [33] = target: Neu5Ac(a2-3)Gal(b1-3)[Fuc(a1-4)]GlcNAc(b1-3)Gal(b1-4)[Fuc(a1-3)]GlcNAc
# How it was run: as §1
# [34] = target: Neu5Ac(a2-3)Gal(b1-3)[GlcNAc(b1-6)]GalNAc
# How it was run: as §1
# [35] = target: Neu5Ac(a2-3)Gal(b1-3)[Neu5Ac(a2-6)]GalNAc
# How it was run: as §1
# [36] = target: Neu5Ac(a2-3)Gal(b1-3)[Neu5Ac(a2-6)]GlcNAc(b1-3)[Fuc(a1-3)[Gal(b1-4)]GlcNAc(b1-6)]Gal(b1-4)Glc
# How it was run: as §1
# [37] = target: Neu5Ac(a2-3)Gal(b1-3)]Neu5Ac(a2-3)Gal(b1-4)]GlcNAc
# How it was run: as §1
binder,measurement,setting,value
B1,glycan array binding signal (z-score),[1],-0.262
same,glycan array binding signal (z-score),[2],-0.001
same,glycan array binding signal (z-score),[3],-0.307
same,glycan array binding signal (z-score),[4],0.06
same,glycan array binding signal (z-score),[5],-0.143
same,glycan array binding signal (z-score),[6],-0.186
same,glycan array binding signal (z-score),[7],0.227
same,glycan array binding signal (z-score),[8],-0.185
same,glycan array binding signal (z-score),[9],-0.238
same,glycan array binding signal (z-score),[10],-0.229
same,glycan array binding signal (z-score),[11],-0.568
same,glycan array binding signal (z-score),[12],-0.165
same,glycan array binding signal (z-score),[13],-0.306
same,glycan array binding signal (z-score),[14],-0.266
same,glycan array binding signal (z-score),[15],-0.366
same,glycan array binding signal (z-score),[16],-0.304
same,glycan array binding signal (z-score),[17],-0.191
same,glycan array binding signal (z-score),[18],-0.322
same,glycan array binding signal (z-score),[19],-0.235
same,glycan array binding signal (z-score),[20],-0.378
same,glycan array binding signal (z-score),[21],-0.349
same,glycan array binding signal (z-score),[22],-0.135
same,glycan array binding signal (z-score),[23],-0.365
same,glycan array binding signal (z-score),[24],-0.069
same,glycan array binding signal (z-score),[25],-0.371
same,glycan array binding signal (z-score),[26],-0.337
same,glycan array binding signal (z-score),[27],-0.426
same,glycan array binding signal (z-score),[28],-0.241
same,glycan array binding signal (z-score),[29],-0.367
same,glycan array binding signal (z-score),[30],-0.056
same,glycan array binding signal (z-score),[31],-0.32
same,glycan array binding signal (z-score),[32],-0.169
same,glycan array binding signal (z-score),[33],-0.351
same,glycan array binding signal (z-score),[34],-0.364
same,glycan array binding signal (z-score),[35],-0.296
same,glycan array binding signal (z-score),[36],-0.358
same,glycan array binding signal (z-score),[37],-0.187
